This is one part of the list.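 How the source made its calls: active = permutation test q below 0.05 after Benjamini-Hochberg correction; inactive = q of 0.05 or more.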
The compounds below were run on U2OS (assay: mean average precision of replicate retrieval against DMSO controls (Cell Painting phenotypic activity) (fraction (0-1)); higher = stronger, more reproducible morphological phenotype distinct from DMSO; extreme values may be limits of the assay). Conditions: 24 h; 5 µM.
With `COC(=O)C1=C(C#N)NC(C)=C(C(=O)OC(C)C)C1c1cccc([N+](=O)[O-])c1` (stereo not given) the mean average precision was active: 0.437.
With `CN1CCN(c2nc(C3=C(c4c[nH]c5ccccc45)C(=O)NC3=O)c3ccccc3n2)CC1` the mean average precision was active: 1.
With `CCC(c1ccc(O)cc1)C(CC)c1ccc(O)cc1` (stereo not given) the mean average precision was active: 0.861.
`CC(C)[C@@H]1C(=O)N(S(C)(=O)=O)[C@@H]2CCN(C(=O)/C=C/CN3CCCCC3)[C@H]21` was tested, and the mean average precision was active: 0.59.
In the case of `Nc1nc(F)nc2c1ncn2[C@@H]1O[C@H](CO)[C@@H](O)[C@@H]1O`, the mean average precision is reported as active: 1.
In the case of `Nc1nnc(Sc2ncc([N+](=O)[O-])s2)s1`, the mean average precision is reported as active: 1.
`COc1ccc(-c2coc3cc(O)ccc3c2=O)cc1` was tested, and the mean average precision was active: 0.567.
In the case of `COc1ccc(Cl)cc1[C@]1(F)C(=O)Nc2cc(C(F)(F)F)ccc21`, the mean average precision is reported as active: 0.499.
For `CCOC(=O)c1c2c3c(cccc3[nH]c1=O)C(=O)c1ccccc1-2`, the mean average precision was active: 0.708.
For `O=C1C(Cl)=C(NCCN2CCOCC2)C(=O)c2ncccc21`, the mean average precision was active: 1.
For `CCOc1ccc2nc(S(N)(=O)=O)sc2c1`, the mean average precision was active: 0.622.
With `C[S+]([O-])c1ccc(-c2nc(-c3ccc(F)cc3)c(-c3ccncc3)[nH]2)cc1` (stereo not given) the mean average precision was active: 1.
For `CCCCCCOc1nsnc1C1=CCCN(C)C1`, the mean average precision was inactive: 0.27.
With `CNC(=O)[C@H](Cc1c[nH]c2ccccc12)NC(=O)[C@@H](CC(=O)NO)CC(C)C` the mean average precision was active: 0.77.
In the case of `CCN[C@H]1CN(CCCOC)S(=O)(=O)c2sc(S(N)(=O)=O)cc21`, the mean average precision is reported as active: 0.42.
In the case of `CC1Oc2cc(cnc2N)-c2c(nn(C)c2C#N)CN(C)C(=O)c2ccc(F)cc21` (stereo not given), the mean average precision is reported as active: 1.
In the case of `Oc1ccc(-c2nc(-c3ccc(F)cc3)c(-c3ccncc3)[nH]2)cc1`, the mean average precision is reported as active: 0.861.
With `CC1(C)C(=O)NC2=C1C(=O)C(=O)c1ccccc12` the mean average precision was active: 1.
In the case of `CCCCCCCC/C=C\CCCCCCCC(=O)OC(CO)CO`, the mean average precision is reported as inactive: 0.307.
With `CC(C)c1ccc2oc3nc(N)c(C(=O)O)cc3c(=O)c2c1` the mean average precision was active: 0.48.
With `Cc1oncc1C(=O)Nc1ccc(C(F)(F)F)cc1` the mean average precision was inactive: 0.291.
In the case of `CC(O)C(CO)NC(=O)C1CSSCC(NC(=O)C(N)Cc2ccccc2)C(=O)NC(Cc2ccccc2)C(=O)NC(Cc2c[nH]c3ccccc23)C(=O)NC(CCCCN)C(=O)NC(C(C)O)C(=O)N1` (stereo not given), the mean average precision is reported as active: 0.336.
With `Cc1cc(C)cc(NC(=O)Cc2ccc(OC(C)(C)C(=O)O)cc2)c1` the mean average precision was inactive: 0.225.
`CC(C)COCC(CN(Cc1ccccc1)c1ccccc1)N1CCCC1` (stereo not given) was tested, and the mean average precision was active: 0.86.
`CC1(C)O[C@@H]2C[C@H]3[C@@H]4CCC5=CC(=O)C=C[C@]5(C)[C@H]4[C@@H](O)C[C@]3(C)[C@]2(C(=O)CO)O1` was tested, and the mean average precision was active: 1.
`COc1ccc(C2Sc3ccccc3N(CCN(C)C)C(=O)C2OC(C)=O)cc1` (stereo not given) was tested, and the mean average precision was active: 0.503.
With `Cc1cc(-c2ccc3c(c2)CC[C@H]3N2CC3(CCN(C(=O)Cc4cn5cc(C)sc5n4)CC3)C2)ncn1` the mean average precision was active: 0.89.
`COC(=O)N(C)c1c(N)nc(-c2nn(Cc3ccccc3F)c3ncccc23)nc1N` was tested, and the mean average precision was inactive: 0.161.
For `Cc1cc(N2CCOCC2)cc2[nH]c(-c3c(NC[C@@H](O)c4cccc(Cl)c4)cc[nH]c3=O)nc12`, the mean average precision was active: 1.
For `CCCCNc1ncc2c(-c3ccc(CN4CCN(C)CC4)cc3)cn(C3CCC(O)CC3)c2n1` (stereo not given), the mean average precision was active: 1.
In the case of `O=C1CC[C@@H](C(=O)O)N1`, the mean average precision is reported as active: 0.603.
`CCCC[C@@H](NC(=O)[C@@H](Cc1cn(C(=O)OC)c2ccccc12)NC(=O)[C@H](CC(C)(C)C)NC(=O)N1[C@H](C)CCC[C@@H]1C)C(=O)O` was tested, and the mean average precision was active: 0.417.
In the case of `O=C(CSc1nc2c(c(=O)n1-c1ccccc1)SCC2)Nc1ccc(-c2ccccc2)cn1`, the mean average precision is reported as active: 0.529.
With `CCCCCCCCCCCCCCCCOc1nc2ccc(C)cc2c(=O)o1` the mean average precision was inactive: 0.0875.
In the case of `Cc1cccc(-c2[nH]c(C(C)(C)C)nc2-c2ccc3c(c2)OCO3)n1`, the mean average precision is reported as active: 1.

Source: the supplement of paper PMC11166567
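Further: cosine similarity of well-level aggregated Cell Painting profiles ranks each compound's replicate wells against DMSO wells, four replicate plates, significance from 100,000 rank shuffles.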
